# Measured values taken from PubChem BioAssay (NCATS).
# “And” between values parts separate entries of the source, which are not always exact repeats. Identical values can stand only once. This list was built around the results that the source calls inconclusive (neither active nor inactive); the mix of calls is not that of the screen. Where a call stands in place of a potency, no number is given. For part of these data: Potencies of inconclusive entries are doubtful fits and often do not repeat. More than one record can exist for a structure, and the calls need not agree. The source made the active and inactive calls. Unless noted, calls follow the shape of the dose curve; as a rule, active = well fitted curve in the direction sought with a large enough effect; inconclusive = small, poorly fitted or top-dose-only effect, or another doubt; inactive = no such curve, though single readings can be large; an effect the other way counts as inactive or inconclusive.
# How the values were obtained:
# CASKI = test: Primary qHTS to identify gynecologic anti-cancer compounds using libraries of approved drugs and bioactive compounds (AID 1345084); conditions: Gynecologic cancer cell panel viability, ATPlite luminescence, 48 h; series mostly up to 57.5 µM; also: nearly all actives have a fitted effect of over 55% in size
# Method in brief: (§1)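 Cytotoxicity screen measuring ATP content by luciferase luminescence. Each compound is applied at five concentrations for 48 h at 37 C with 5% CO2.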
# PA-1 = test: as above; conditions: Gynecologic cancer cell panel viability, ATPlite luminescence, 48 h; series mostly up to 57.5 µM
# Method in brief: as §1
# [1] = qHTS to identify inhibitors of the type 1 interferon - major histocompatibility complex class I in skeletal muscle: primary screen against the NCATS Mechanism Interrogation Plate v5.0 (MIPE) Libary (AID 1347411); conditions: iHSKM cells + IFN-b, HiBiT-tagged MHC-I luminescence, 24 h; activity change, negative = inhibition: at 45.8 µM (top of the series) unless noted; also: potency is read from the fitted curve at half-maximal effect; nearly all actives have a fitted effect of over 65% in size
# Method in brief: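 Seed engineered human myoblasts (HLA-B HiBit) in medium without dexamethasone containing 4 ng/ml IFN-beta; after 1 hr add compound titrations (top 46 uM final). Incubate 24 hrs at 37 C, lyse 10 min with HiBiT reagent, read luminescence.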
# [2] = Primary qHTS for inhibitors of nuclear receptor binding SET domain protein 2 (NSD2) in an RCH-ACV wild type WT cells (2C) (AID 1645877); conditions: activity change, negative = cell killing: at 44.9 µM (top of the series) unless noted; also: nearly all actives have a fitted effect of over 70% in size; also: potency is read from the fitted curve at half-maximal effect
# [3] = NCATS anti-infectives library activity on the primary C. elegans qHTS viability assay (AID 1745855; calls by dose curve; also: potency is read from the fitted curve at half-maximal effect)
# Method in brief: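 GFP read-out by 488 nm laser cytometry at day 0, 3 and 7, gated on object perimeter, area and peak intensity, scored viability of PE254-GFP-FLuc worms exposed to compound in S medium with bacterial capsules at 21 °C.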
# Tov-21-G = test: Primary qHTS to identify gynecologic anti-cancer compounds using libraries of approved drugs and bioactive compounds (AID 1345084); conditions: Gynecologic cancer cell panel viability, ATPlite luminescence, 48 h; series mostly up to 57.5 µM; also: nearly all actives have a fitted effect of over 55% in size
# Method in brief: as §1
# [4] = P-glycoprotein substrates identified in KB-3-1 adenocarcinoma cell line, qHTS therapeutic library screen (AID 1346986); also: nearly all actives have a fitted effect of over 60% in size
# Method in brief: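 Viability read by CellTiter-Glo after 72 h compound exposure in dose-response of KB-3-1 and KB-8-5-11 (P-gp-high) cells. Hits needed AC50 < 10 uM, >50% maximum response and curve class -1.1 to -2.4. Cherry-picks retested ± tariquidar, including pcDNA/MDR-19 HEK-293 pair.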
# [5] = tested on: Zika virus NS2B-NS3 protease (unlinked complex); test: Primary screen GU Rhodamine qHTS for Zika virus inhibitors: Unlinked NS2B-NS3 protease assay (AID 1347159); conditions: Recombinant ZIKV NS2B-NS3 protease, Rhodamine110 substrate fluorescence; activity change, negative = inhibition: at 107 µM (top of the series); also: potency is read from the fitted curve at half-maximal effect; nearly all actives have a fitted effect of over 60% in size
# Method in brief: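 In dose–response format, inhibition of unlinked protease (25 nM) was measured with 1.5 microM bis-peptide Rhodamine110 substrate. Aprotinin served as the intraplate control.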
# [6] = Primary qHTS for inhibitors of nuclear receptor binding SET domain protein 2 (NSD2) in an isogenic RCH-ACV NSD2 p.E1099K mutant (9B) (AID 1645876); conditions: activity change, negative = viability loss: at 44.9 µM (top of the series) unless noted; also: nearly all actives have a fitted effect of over 70% in size
# Tags tell the direction and shape of the fitted curve.
smiles,measurement,setting,value
CN(C)CCC[C@]1(c2ccc(F)cc2)OCc2cc(C#N)ccc21,Potency,CASKI,inactive
same,Potency,PA-1,inactive
Cc1noc2c1-c1ccccc1C(c1ccc(Cl)cc1)=N[C@H]2CC(N)=O,Potency,[1],"inconclusive: 5.87 µM [inhibitor, partial curve]"
same,Potency,[2],inactive and active: 525 nM
same,Potency,[3],active: 5.15 µM
same,Potency,CASKI,inactive
same,Potency,Tov-21-G,inactive
CC(=O)Oc1cc2c(s1)CCN([C@H](C(=O)C1CC1)c1ccccc1F)C2,Potency,[4],inactive
same,Potency,[5],"inconclusive: 44.7 µM [inhibitor, partial curve]"
same,Potency,[6],inactive
same,Potency,CASKI,inactive
same,Potency,Tov-21-G,inactive
